Measured values: PubChem BioAssay AID2675 (National Center for Advancing Translational Sciences (NCATS), 2010)
Among all 280,000 compounds or so, about 100 (0.036%) were called active. Inconclusive means that the source gave no clear call. Such entries were picked first, then a sample of the others. The call rests on the fitted dose curve; in most records, active means well fitted inhibition curve with a large enough effect in the signal ratio, with a control signal flat (not every such curve was filed as active); inconclusive means small, poorly fitted or top-dose-only effect, or effect the other way, or a change in a side signal; inactive means no such curve, though single readings can be large or run the other way; the % refers to the signal ratio. Potencies beside an inconclusive call are fits to weak or partial responses and may not hold up. “Side channel” marks fits to a control or component signal instead of the main read-out.

Each compound was assayed against Muscleblind-like protein 1 (Homo sapiens) (UniProt Q9NR56) (assay: qHTS Assay for Inhibitors of MBNL1-poly(CUG) RNA binding). Settings: TR-FRET MBNL1-His/biotin-(CUG)12 binding, 665/545 ratio; series mostly up to 57.5 µM.
Outline: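 Ratiometric TR-FRET (665 over 545 nm, excitation 340 nm) tracks disruption of MBNL1-His/biotin-(CUG)12 complex after 60 min at room temperature, with compounds at 92 nM to 58 uM final.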
Potency means the concentration at half of the fitted maximal effect; tags describe the fitted curve by direction and shape or compound fluorescence and quenching.

Chain of UniProt Q9NR56 (Q9NR56 whole entry, looked up): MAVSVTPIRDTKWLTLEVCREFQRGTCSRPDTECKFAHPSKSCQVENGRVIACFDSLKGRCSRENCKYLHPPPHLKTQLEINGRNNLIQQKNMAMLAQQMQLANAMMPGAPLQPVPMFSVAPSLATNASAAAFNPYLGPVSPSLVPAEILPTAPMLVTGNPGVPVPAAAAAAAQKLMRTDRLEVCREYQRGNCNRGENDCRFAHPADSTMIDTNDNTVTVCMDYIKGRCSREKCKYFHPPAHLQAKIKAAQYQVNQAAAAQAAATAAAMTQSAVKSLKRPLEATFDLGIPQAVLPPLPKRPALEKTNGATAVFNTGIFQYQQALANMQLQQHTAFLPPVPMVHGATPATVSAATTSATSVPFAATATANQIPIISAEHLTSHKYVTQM

Row | SMILES | Potency
1 | Cc1onc(C(=O)Nc2sc3c(c2C#N)CCCC3)c1[N+](=O)[O-] | inconclusive: 39.8 µM [quencher, side channel, partial curve]
2 | C=CCn1c(C)c(/C=C/c2cc[n+](C)cc2)c2ccccc21 | inconclusive: 14.1 µM [quencher, side channel, partial curve]
3 | O=C(O)CC(NNC(=O)c1ccccc1)C(=O)Nc1cccc([N+](=O)[O-])c1 (stereo not given) | inconclusive: 22.4 µM [quencher, side channel, partial curve]
4 | COc1ccc(N(CC(=O)N/N=C/c2cc(Br)c(C)o2)S(=O)(=O)c2ccc(NC(C)=O)cc2)cc1 | inconclusive: 28.2 µM [quencher, side channel, single point]
5 | COc1ccccc1/C=C1\SC(=S)N(CCC(=O)N2CCCCC2CCO)C1=O (stereo not given) | inconclusive: 14.1 µM [quencher, side channel, partial curve]
6 | COc1cc(/C=N/n2cnnc2)ccc1OCCOc1ccccc1 | inactive
7 | COc1ccc(CN2CCC(N3CC(C)OC(C)C3)CC2)c(OC)c1OC (stereo not given) | inactive
8 | COC(=O)/C(C#N)=C/c1occc1C | inconclusive: 25.1 µM [quencher, side channel, partial curve, poor fit]
9 | CCOC(=O)c1[nH]cnc1N=Nc1c(O)ccc2ccccc12 | inconclusive: 1.41 µM [quencher, side channel, partial curve]
10 | CC(C)OCCCNc1nc2c(-c3ccccc3)nnn2c2ccccc12 | inconclusive: 10 µM [fluorescent, side channel, full curve, poor fit]
11 | Cc1ccccc1NCc1ccc([N+](=O)[O-])s1 | inconclusive: 17.8 µM [quencher, side channel, partial curve]
12 | O=[N+]([O-])c1ccccc1SNc1ccccn1 | inconclusive: 8.91 µM [quencher, side channel, partial curve]
13 | CCn1c(=O)c2cc(C(=O)N(C)CC(OC)OC)sc2c2ccccc21 | inconclusive: 22.4 µM [quencher, side channel, partial curve]
14 | CC(=O)Oc1ccc(C(=O)Nc2ccccc2C(=O)N2CCCCC2)cc1 | inactive
15 | COc1ccc(/C=N/n2nnnc2N)cc1OC | inconclusive: 28.2 µM [quencher, side channel, partial curve]
16 | Cc1nc2ccc([N+](=O)[O-])cc2c(=O)n1Cc1ccc([N+](=O)[O-])cc1 | inconclusive: 11.2 µM [quencher, side channel, partial curve]
17 | CN(C)S(=O)(=O)c1ccc(C(=O)OC2CCOC2=O)cc1 (stereo not given) | inactive
18 | CCOc1ccc(OCCN(C)Cc2ccccc2)cc1 | inactive
19 | O=c1cc(CO)oc(C(Nc2cccc([N+](=O)[O-])c2)c2ccccn2)c1O (stereo not given) | inconclusive: 14.1 µM [quencher, side channel, partial curve]
20 | COc1cccc(/C=N/Nc2c(Cl)cncc2Cl)c1O | inconclusive: 31.6 µM [quencher, side channel, single point]

Row | SMILES | Potency
21 | O=C(CCN1C(=O)/C(=C/c2cccs2)SC1=S)N1CCCCC1 | inconclusive: 3.16 µM [quencher, side channel, full curve, poor fit]
22 | COc1ccc(OC)c(/C=C2\Oc3cc(OCC(=O)N4CCC[C@H]4C(=O)O)ccc3C2=O)c1 | inconclusive: 17.8 µM [quencher, side channel, partial curve]
23 | COc1cccc(/C=N/NC(=O)c2cc3c(OC)c(OC)ccc3[nH]2)c1OC | inconclusive: 15.8 µM [quencher, side channel, partial curve]
24 | COc1ccc(-n2nc(C(=O)NCC(=O)NCCC3=CCCCC3)c3ccccc3c2=O)cc1OC | inconclusive: 25.1 µM [quencher, side channel, single point]
25 | CCOC(=O)CCCc1ccc(/C(C)=N/NC(=S)NC)cc1 | inactive
26 | COc1cccc(Nc2ccccc2C(=O)O)c1 | inactive
27 | COc1cc(/C=C/C(=O)Nc2ccncc2)cc(OC)c1OC | inconclusive: 39.8 µM [quencher, side channel, single point]
28 | CC(C)(C)NC(=O)CSc1nc2ccc(NC(=O)CSc3nnc(N)s3)cc2s1 | inconclusive: 39.8 µM [quencher, side channel, single point]
29 | CN(C)C(=O)C[n+]1ccc(/C=N/O)cc1 | inconclusive: 17.8 µM [quencher, side channel, single point]
30 | Cc1cc(=O)oc2c3c(cc(OCC(=O)NCc4ccccn4)c12)OC(C)(C)CC3 | inactive
31 | O=c1cc(Nc2ccc3c(c2)OCCO3)[nH]c(=O)n1Cc1ccc(F)cc1 | inconclusive: 79.4 µM [inhibitor, single point]
32 | O=C(CSc1nnc2c3ccccc3c3ccccc3c2n1)Nc1ccccc1 | inactive
33 | CSc1ccccc1OCc1cc(C(=O)N2CCNC(=O)C2)no1 | inconclusive: 79.4 µM [inhibitor, partial curve]
34 | Cc1cc(C)c(C#N)c(SCC(=O)Nc2nonc2N)n1 | inactive
35 | Cc1ccc(NCC(=O)N/N=C/c2ccc(C(=O)O)cc2)cc1 | inconclusive: 22.4 µM [quencher, side channel, single point]
36 | O=C(O)[C@@H]1CCCC[C@@H]1C(=O)N1CCc2ccccc2C1CN1C(=O)c2ccccc2C1=O (stereo not given in full) | inconclusive: 15.8 µM [quencher, side channel, partial curve]
37 | COc1ccc(C(=O)/C=C/c2cn(CC(O)CN3CCN(C)CC3)c3ccccc23)cc1OC (stereo not given) | inconclusive: 14.1 µM [quencher, side channel, partial curve]
38 | CCOC(=O)N1CCC(=NNC(=O)c2ccc(O)cc2)CC1 | inactive
39 | COc1cc2c(cc1OC)C(C)=NCC2 | inconclusive: 25.1 µM [quencher, side channel, single point]
40 | O=C(COC(=O)CNC(=O)c1cccc([N+](=O)[O-])c1)Nc1cccc(S(=O)(=O)N2CCCC2)c1 | inconclusive: 22.4 µM [quencher, side channel, partial curve]

Row | SMILES | Potency
41 | NC(=S)N/N=C1\CC(c2ccc3c(c2)OCCCO3)Oc2ccc(F)cc21 (stereo not given) | inconclusive: 20 µM [quencher, side channel, partial curve, poor fit]
42 | CCOC(=O)c1cccc(NC(=O)COc2nsnc2N2CCOCC2)c1 | inactive
43 | O=C(O)C1CCN(c2ccc(S(=O)(=O)N3CCC(C(=O)O)CC3)cc2[N+](=O)[O-])CC1 | inconclusive: 14.1 µM [quencher, side channel, partial curve]
44 | CCC(C)(C)NC(=O)C1CCC(CNS(=O)(=O)c2cccc3nsnc23)CC1 (stereo not given) | inconclusive: 10 µM [quencher, side channel, partial curve]
45 | COCc1cc(C)nc(OCC(=O)N/N=C/c2ccc(C)o2)c1C#N | inconclusive: 35.5 µM [quencher, side channel, single point]
46 | CCn1c(N)c(C(=O)NCc2ccco2)sc1=S | inconclusive: 11.2 µM [quencher, side channel, partial curve]
47 | Cn1c(CCN2CCOCC2)nc2cc(NC(=O)COc3ccc([N+](=O)[O-])cc3)ccc21 | inconclusive: 20 µM [quencher, side channel, partial curve]
48 | CCOc1ccc(NC2OCC(O)C(O)C2O)c([N+](=O)[O-])c1 (stereo not given) | inconclusive: 20 µM [quencher, side channel, partial curve]
49 | O=[N+]([O-])c1c(NCCCO)cc(N2CCCCCC2)c2nonc12 | inconclusive: 11.2 µM [quencher, side channel, partial curve]
50 | Cc1ccc(-n2ncc3c(NCCCOC(C)C)ncnc32)c(C)c1 | inconclusive: 39.8 µM [quencher, side channel, single point]
51 | Nc1cc(N2CCCCCC2)c2nonc2c1[N+](=O)[O-] | inconclusive: 2.51 µM [quencher, side channel, full curve]
52 | CCc1cc(CNC(=O)CC2C(=O)NCCN2Cc2c(F)cccc2Cl)on1 (stereo not given) | inconclusive: 31.6 µM [quencher, side channel, partial curve]
53 | Cc1noc(NS(=O)(=O)c2ccc(N/C=C/C(=O)c3cccnc3)cc2)c1C | inconclusive: 31.6 µM [quencher, single point]
54 | Cc1ccc(/C=N/NC(=O)C(O)c2ccccc2)o1 (stereo not given) | inconclusive: 39.8 µM [quencher, side channel, single point]
55 | Cc1ncc(N=Nc2ccccc2)c(-c2ccccc2)n1 | inconclusive: 28.2 µM [quencher, single point]
56 | Cc1ccc(Cn2c(=O)c3cccnc3n(CC(=O)Nc3cccc(C(F)(F)F)c3)c2=O)cc1 | inconclusive: 6.31 µM [fluorescent, side channel, partial curve]
57 | Oc1cc(-n2cccn2)c(O)cc1-n1cccn1 | inactive
58 | CCN1CCN(CC2CC3C=CC2C3)CC1 (stereo not given) | inconclusive: 1.12 µM [fluorescent, side channel, single point]
59 | C/C(=N\NC(=O)c1nn(C)cc1Br)c1cccc(NC(=O)C2CCCC2)c1 | inconclusive: 28.2 µM [quencher, side channel, partial curve]
60 | O=C1NC(=S)N/C1=C\C=C\c1ccccc1 | inconclusive: 3.55 µM [quencher, side channel, partial curve]
